Data from article PMC4336329 (PLoS ONE, 2015).
Screen size: about 310,000 compounds; about 2,200 (0.71%) showed an effect of 50% or more. The effect is printed as a negative number. The list shows a part of the results.

Target: human ether-à-go-go-related gene (hERG) potassium channel (human, UniProt Q12809)
Assay: primary screen, population patch clamp on CHO cells stably expressing hERG

Sequence of human ether-à-go-go-related gene (hERG) potassium channel (Q12809 whole entry, looked up): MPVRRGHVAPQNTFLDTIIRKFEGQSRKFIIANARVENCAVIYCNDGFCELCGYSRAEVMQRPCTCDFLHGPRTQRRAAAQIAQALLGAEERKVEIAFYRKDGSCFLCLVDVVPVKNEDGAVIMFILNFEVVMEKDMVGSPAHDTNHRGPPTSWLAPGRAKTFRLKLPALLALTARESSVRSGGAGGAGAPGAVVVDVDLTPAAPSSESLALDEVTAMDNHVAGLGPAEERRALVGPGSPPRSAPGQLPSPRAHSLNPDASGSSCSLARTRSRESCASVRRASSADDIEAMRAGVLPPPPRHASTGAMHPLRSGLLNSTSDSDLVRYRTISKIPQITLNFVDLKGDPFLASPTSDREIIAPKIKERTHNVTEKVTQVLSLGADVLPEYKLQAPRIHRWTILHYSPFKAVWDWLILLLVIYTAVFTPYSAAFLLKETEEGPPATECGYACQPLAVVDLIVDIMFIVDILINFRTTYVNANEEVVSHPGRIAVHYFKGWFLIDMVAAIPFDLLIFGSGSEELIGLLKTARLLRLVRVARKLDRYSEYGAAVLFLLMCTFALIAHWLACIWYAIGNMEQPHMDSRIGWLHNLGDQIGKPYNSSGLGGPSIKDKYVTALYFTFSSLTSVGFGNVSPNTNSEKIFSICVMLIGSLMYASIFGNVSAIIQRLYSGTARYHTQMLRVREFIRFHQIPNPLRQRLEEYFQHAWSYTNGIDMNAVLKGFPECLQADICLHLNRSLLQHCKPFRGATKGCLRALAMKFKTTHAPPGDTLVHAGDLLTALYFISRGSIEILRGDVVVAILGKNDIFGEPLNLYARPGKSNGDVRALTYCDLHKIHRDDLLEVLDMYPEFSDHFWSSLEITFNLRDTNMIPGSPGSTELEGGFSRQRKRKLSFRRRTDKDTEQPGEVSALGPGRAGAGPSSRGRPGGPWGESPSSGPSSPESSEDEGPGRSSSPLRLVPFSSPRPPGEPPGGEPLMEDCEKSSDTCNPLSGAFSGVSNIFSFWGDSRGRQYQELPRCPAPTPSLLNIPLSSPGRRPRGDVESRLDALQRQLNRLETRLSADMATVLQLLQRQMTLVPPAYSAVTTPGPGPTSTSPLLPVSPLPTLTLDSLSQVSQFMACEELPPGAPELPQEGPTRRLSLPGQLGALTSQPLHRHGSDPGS

SMILES | hERG current change (%, negative = inhibition) at 1uM [%]
Cc1ccc(S(=O)(=O)NCC2CCC(C(=O)NCCCOC(C)C)CC2)cc1 (centres unmarked) | 6.2
COc1cc2nc(N3CCN(C(=O)C4COc5ccccc5O4)CC3)nc(N)c2cc1OC.CS(=O)(=O)O (centres unmarked) | -0.725
O=C(Cc1ccccc1Cl)N/N=C/c1cccnc1 | 8.88
COc1ccc(NC(=S)NCCCN2CCOCC2)cc1 | 9.83
C=CCNC(=O)CSc1nnc(-c2ccccc2Cl)n1-c1c(C)n(C)n(-c2ccccc2)c1=O | -11.3
Cc1ccc(-c2cc(C(=O)N/N=C/C=C/c3ccccc3)n[nH]2)s1 | 7.95
COc1ccc(NC(=O)CCNC(=O)Cn2cnc3sc4c(c3c2=O)CCCC4)cc1OC | 15.2
C=CCn1c(-c2ccc([N+](=O)[O-])cc2)n[nH]c1=S | 10.7
O=S(=O)(c1ccc2c(c1)nc(COc1ccc(Cl)cc1)n2CC1CCCO1)N1CCOCC1 (centres unmarked) | -19
O=C1c2ccccc2C(=O)C12OC2c1ccc(Cl)cc1Cl (centres unmarked) | 10.9
COC(=O)C(NC(=O)C(CC(C)C)NC(=O)C1CCC(C)CC1)C(C)C (centres unmarked) | 7.7
Nc1nonc1-n1nnc(C(=O)N/N=C/c2ccc(Br)cc2)c1CSC1=NCCS1 | 3.25
CCOC(=O)c1ccccc1NC(=O)CSc1nnc(C)c(=O)[nH]1 | 13.2
O=C(COn1nnc2ccc(S(=O)(=O)N3CCOCC3)cc21)Nc1c(F)c(F)c(F)c(F)c1F | 7.05
COc1ccc(NC(=O)C(=O)c2cn(CC(=O)N3CCCC3)c3ccccc23)c(OC)c1 | 13.3
O=C(CC12CC3CC(CC(Br)(C3)C1)C2)NC1=NCCS1 | 1.08
C/[N+]([O-])=C\C1C(=O)CC(C)(C)CC1=O | 8.29
Cc1ccccc1-n1c(SCC(=O)N/N=C/c2ccccc2OCC(=O)O)nc2ccccc2c1=O | 13.3
Cc1nn(C(C)C(=O)O)c2ccccc12 (centres unmarked) | 11.4
CC1=NN(c2ccccc2)C(=O)/C1=C\c1cn(CCC#N)nc1-c1ccc(Cl)cc1 | 6.87
C[C@]12CCC3c4ccc(O)cc4CCC3C1CC/C2=N\N (some centres unmarked) | 13.7
COc1cc(NC(=O)CCC(=O)O)nc(OC)n1 | 9.33

SMILES | hERG current change (%, negative = inhibition) at 1uM [%]
Cc1ccc(CN2CCNC(=O)C2CC(=O)N(C)CCc2cnn(C)c2)cc1 (centres unmarked) | 4.98
O=C1NC(=Nc2cccc(O)c2)S/C1=C\c1cccc([N+](=O)[O-])c1 | 22.1
CCc1ccccc1NC(=O)CSc1nc2n[nH]c(C)c2c(=N)n1-c1cccc(OC)c1 | -7.41
C#CCOCCOCCOCCNc1nc(N2CCOCC2)nc(N2CCN(C(=O)[C@H]([C@@H](C)CC)n3cc([C@@H](N)CC(C)C)nn3)CC2)n1.Cl | 7.82
O=C(c1cc(S(=O)(=O)N2CCOCC2)ccc1F)N(Cc1nnc(-c2ccccc2Cl)o1)C1CC1 | 13.8
CCc1noc(C)c1C(=O)N(CCOC)c1c(N)n(CC(C)C)c(=O)[nH]c1=O | 15.7
COc1ccccc1CCNC(=O)c1c(C)nn(CC(C)C)c1Cl | 11.1
C=CCNC(=S)NNC(=O)CCC(O)CCCCC (centres unmarked) | 11.2
COc1cc(C)c(CN2CCN(S(=O)(=O)c3ccc(Cl)s3)CC2)cc1OC | 4.58
COc1ccc(S(=O)(=O)N2CCCC2)cc1NC(=O)c1ccccc1 | 10.3
Cc1cc(C)cc(SCc2noc(C(=O)NC(C)C)c2C(=O)O)c1 | 23.7
CC(=O)Nc1ccc(N2C(=O)CSC2c2ccccc2[N+](=O)[O-])cc1 (centres unmarked) | 21.1
Cc1ccc(F)cc1NCC(=O)Nc1ccc(Cl)cc1F | 9.79
O=C(NCCCN1CCN(c2ccc(F)cc2)CC1)c1cccc(N2CCCC2=O)c1 | -24.2
COC(=O)Cc1sc(-c2ccccn2)nc1-c1ccccc1 | 10.4
CCOC(=O)c1c(C)[nH]c(C)c1C(=O)COC(=O)c1cccc(S(=O)(=O)N(CC)CC)c1 | 2.25
Cc1nc(SCC(=O)NC(C)c2ccccc2)c2oc3ccccc3c2n1 (centres unmarked) | 1.93
CCn1cc([N+](=O)[O-])c(C(=O)Nc2c(C)nn(Cc3c(F)c(F)c(F)c(F)c3F)c2C)n1 | 3.28
CCCCCc1ccc(-c2cn(Cc3ccc([N+](=O)[O-])cc3)nn2)cc1 | 15.8
CCOC(=O)c1sc(NS(=O)(=O)c2cc(C)ccc2C)nc1C | 16.2
CCc1c(C)c(C#N)c2nc3ccccc3n2c1NCc1ccccn1 | -8.03
Cc1cccc(NC(=S)/N=C(\N)Nc2nc(C)c3ccc(C)cc3n2)c1 | 7.13

SMILES | hERG current change (%, negative = inhibition) at 1uM [%]
Cc1ccc(N2C(=O)CC(c3ccsc3)C3=C2CC(C)(C)CC3=O)cc1 (centres unmarked) | 8.52
CC(C)(C)NC(=O)NC(=O)COC(=O)COc1ccc(Cl)cc1Cl | 5.76
CC(NC(=O)CCc1nc2cc(S(=O)(=O)N3CCOCC3)ccc2n1C)c1ccc(S(N)(=O)=O)cc1 (centres unmarked) | -8.24
CC1CCN(C(=O)CN(c2ccccc2)S(=O)(=O)N(C)C)CC1 | 17.4
O=c1sc2ccccc2n1CCOc1ccccc1 | 12.2
COCCCN(CCC#N)C(=O)c1c(-c2c(Cl)cccc2Cl)noc1C | 13.4
COc1ccccc1NC(=O)Nc1ccc(-n2ccc(C(F)(F)F)n2)cc1 | 13.5
CCOC(=O)c1c(CC(C)C)csc1NC(=O)COC(=O)C1=NNC(=O)CC1 | 12.6
CS(=O)(=O)N(CC(=O)Nc1ccccc1C(=O)N1CCOCC1)c1ccc2c(c1)OCO2 | 6.56
Fc1ccc(Nc2nc3ccccc3s2)cc1 | 13.5
Cn1c(=O)c2c(nc(Br)n2CC(=O)c2cccs2)n(C)c1=O | -3.85
O=C1C=C(c2ccc(Oc3ccccc3)cc2)C[C@@H](c2ccc(F)cc2)C1 | 12.7
COc1ccc(C(=O)NCCCn2ccnc2)cc1.Cl | 8.12
CCn1c(=O)cc(SCC(=O)Nc2cccnc2)c2ccccc21 | -3.1
CCCCNc1ccncc1S(=O)(=O)NC(=O)NC(C)C.O=[N+]([O-])O | 7.78
Cl.Clc1ccc(COc2ccccc2CNCc2cccnc2)cc1 | 2.84
NC(=O)CSc1nnc(Cn2c(=O)sc3ccccc32)n1CCc1ccccc1 | 2.54
O=C(O)CN1C(=O)C2(OCCO2)c2cc(Br)ccc21 | 1.32
Cc1ccc(N(C(C)C(=O)N2CCCC2)S(C)(=O)=O)cc1 (centres unmarked) | 15.8
Cc1cc2nccc(-c3ccco3)n2n1 | 11.9
Cc1nc2sc(C(c3ccc(Cl)cc3)N3CCN(c4ccccc4F)CC3)c(O)n2n1 (centres unmarked) | 0.119
CC(C)Cn1c(N)c(C(=O)COC(=O)c2ccc3c(c2)OCCO3)c(=O)n(C)c1=O | -11.1

SMILES | hERG current change (%, negative = inhibition) at 1uM [%]
C[C@@H](C(=O)Nc1nc(-c2ccccn2)cs1)N1C(=O)C2CCCCC2C1=O (some centres unmarked) | 8.07
CCC(CC)c1nnc(NC(=O)C23CC4CC(CC(NC(C)=O)(C4)C2)C3)s1 | 0.699
Cc1cccc(C)c1NC(=O)C(NS(=O)(=O)c1cccs1)c1ccccc1 (centres unmarked) | 10.2
Cc1ccc(NC(=O)C2CCC(=O)N2C(=O)OCc2ccccc2)cc1 (centres unmarked) | 3.85
O=C(CSc1n[nH]c(=O)n1Cc1ccco1)Nc1ccccc1 | 11.4
CC1Cc2cc(/C(O)=C3/C(=O)C(=O)N(CCN4CCOCC4)C3c3cccc(Cl)c3)ccc2O1 (centres unmarked) | 5.27
NS(=O)(=O)c1ccc(CNC(=O)Cc2ccsc2)cc1 | 18.3
O=C(CCCc1nc2ccccc2s1)NCc1ccccc1F | -2.07
CC(=O)Nc1sc(C)c(C)c1C(=O)OCC(=O)NCc1ccc(F)cc1 | 12.8
COc1ccc(CCNC(=O)C2CCN(S(=O)(=O)c3ccc4c(c3)oc(=O)n4C)CC2)cc1OC | 12.4
CCN1c2ccccc2-c2nc3ccccc3n2C1c1ccncc1 (centres unmarked) | 3.03
CSc1ccccc1C(=O)OCC(=O)N1CCN(C(C)=O)CC1 | 15.2
Cc1ccc(NS(=O)(=O)c2c(C(=O)N3CCOCC3)c(C)n(C)c2C)cc1C | 13.9
O=C(NC1CCC(O)CC1)c1ccc(-c2ccc(Cl)cc2)o1 (centres unmarked) | -0.762
O=C([O-])CCCNC(=O)C(c1ccccc1)c1ccccc1.[Li+] | 1.13
CN(C(=S)NC1=CCS(=O)(=O)C1)C1CCCCC1 | 10.7
N#Cc1ccc(CN2CCN(CC(=O)NCCc3ccc(Cl)cc3Cl)CC2)cc1 | -47.3
O=c1[nH]c2ccc(S(=O)(=O)NCc3ccccn3)cc2s1 | 16.9
COc1ccccc1-c1cc2nc(C)c(CCC(=O)NCc3ccc(F)cc3)c(C)n2n1 | -1.72
O=C(COc1ccc(Cl)cc1)N(Cc1cccs1)C1CCS(=O)(=O)C1 (centres unmarked) | -3.54
